These results are taken from publication PMC10726135.

The list shows a part of the results. At the low end of the ranking, values are background and their order means little. Measured with an extract: partners may take part in the binding.

The assay addresses T1, HNF4alpha8 (COS-7 nuclear extract) (UniProt P41235-5).
T1 sequence: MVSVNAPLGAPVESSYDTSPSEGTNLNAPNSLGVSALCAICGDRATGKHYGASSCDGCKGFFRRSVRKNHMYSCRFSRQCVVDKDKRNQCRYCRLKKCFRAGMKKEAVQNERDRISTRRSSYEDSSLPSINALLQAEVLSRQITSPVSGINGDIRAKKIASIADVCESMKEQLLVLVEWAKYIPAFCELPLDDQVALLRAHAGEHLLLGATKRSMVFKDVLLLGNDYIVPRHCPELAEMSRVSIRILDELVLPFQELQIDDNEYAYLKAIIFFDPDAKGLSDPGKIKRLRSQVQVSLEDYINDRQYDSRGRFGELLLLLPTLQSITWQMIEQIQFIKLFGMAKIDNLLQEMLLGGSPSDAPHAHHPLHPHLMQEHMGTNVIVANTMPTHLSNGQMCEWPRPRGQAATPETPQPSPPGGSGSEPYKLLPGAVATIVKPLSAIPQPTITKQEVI
The assay can be described thus: protein-binding microarray. The following applies: COS-7 nuclear extract on double-stranded Agilent 4x180k PBM; binding buffer, salt, pH and temperature not given; high values mean tight binding; double strand, one strand shown; sequences stand for … in …GCCTAGGGAGATTAGAGTATCGGTCGA
Turning to CTTCCCCCCTCCCTCCGCAACCTTTACTCC, the binding signal (log2 normalized intensity) was determined as 5.16.
The same measure for TCCCTCATCTGTCATTCCCTCACTCTAGAA: -0.967.
As for GGACAATCATTGTGCAACCTGGACATTGGC, the binding signal (log2 normalized intensity) was determined as 2.97.
On to CACTCCAGTGAGACAGAAGTAAAACAGGTA, for which the binding signal (log2 normalized intensity) is -1.31.
The same measure for AGGGACTTTGTCCCACAGGAGAAGTGATCC: 2.17.
On to ATGAAAAGTGGAATGCGCTTTCATGAGATG, for which the binding signal (log2 normalized intensity) is -1.22.
On to ACATCTTGATTTAGCCCAGTGAGACCCATT, for which the binding signal (log2 normalized intensity) amounted to 0.922.
Take GCCACCCCCGTTAATTTCTAACCAATGCAG: the binding signal (log2 normalized intensity) came to 1.52.
The same measure for TAGCCTTTCATCTTCTTAGCCTTTGAACCC: 6.63; for TTGTCAAGTGCCCGGATAAACTTCCAGCCA: -1.33.
The same measure for ACTGTAACCTTTGCCCCCCTGGGCTCAAGC: 6.27; for TTTTATTTAACTTCTGGGGGCAAGGTACAC: 5.13.
For TCAAGCACATTCCAGAACCAAGATTTACAT the value was -1.44.
In the case of ATCCAGCTGGGTATACTGACTAGGACAGAG, the binding signal (log2 normalized intensity) is -1.27.
The same measure for TTGGCACTTCTCTCGGCCTTAAGAGTCAAA: -1.4; for TTTATTGTTGCTGATATAGAACACTTGTAC: 1.87.
The same measure for TTCTTCCTGTTTGACCTTCGAACCCTTGCC: 9.64; for AATAAGAGCTTTGCATAAGCCAGACATTCT: -1.24; for ATGGATCATCACAATCACCTGTGAAGTGGT: 0.562.
For ATGATCCTTGGCTGTGTGACTCACCTTTGC the value was 3.88; for AGTTTTATGGCAGGGTCGGAATGTCTGGGC, 1.19; for TACGGACCATGGATCGCCAACCTTGGGTCT, -1.26.
AGATGATAGTGATAAGGATCTAAGAACTAA: the binding signal (log2 normalized intensity) was -1.35.
For TTATCTTACATGCCTTATCTGGTTCAAAGG the value was 3.33; for TGCCTTTGATCAGGGACCTTTGTTCCTTTA, 5.
Consider TGGTTTTCCAATCTGGTGAAAGATGATGAG, for which the binding signal (log2 normalized intensity) was 0.365.
For ACCTAGGTAGTGGACTCTAAGGCAAAACAC the value was 1.85.
The same measure for ACCCCACGGACTTAAATTGTGCTGTGTCAG: 0.967; for GCATTCCTGAAGCCTTCCTTAATCCTTCAG: -1.29.
Turning to TGACAGCAAGATAATGTCAAAAATCTTAAG, the binding signal (log2 normalized intensity) is -1.06.
As for GGTGGTGGGGGGTAGCCACTGACAGGAGGT, the binding signal (log2 normalized intensity) was -1.34.
The same measure for TCCAAAGGCCATCCACATTCTTTGGCTCAG: -1.3; for GGTGGCCATCCATCCTGGCGACAGCAACTA: -1.25.
For TTTGTCACCCAGGCTGAAGTCCAGTAGCTC the value was 1.71; for AGAGGCTTTAGCAATAAATTCTGTTTTTTC, -1.24; for CCACAGAGTGACCTGGTATTGCAAGTATTT, 1.28.
As for CAAGTTGAAGCCATCCTCCCACCTCAGCCT, the binding signal (log2 normalized intensity) is 1.99.
The same measure for AGCCGCAGAGCTAATGTTCAAATCCAGACA: -1.29; for TATTCAAACAGAGGACAGTTGTGTTTGTTG: 1.43; for AGTGCTTGTCAGTTTTGTTTTTGATCCCAA: 2.57.
For CTATCAGTCTGGGTCCAGTCAGGGAAATGG the value was 1.03.
GCAGAGTGGGAGGCCAAGAGATAAAAGAGA: the binding signal (log2 normalized intensity) was -1.1.
For TGGTAGCGTGTAGTAAAGCTCATGAAGCTT, the binding signal (log2 normalized intensity) stood at 0.734.
Take CCACAAGCCAAGGAGAGAGGCCTCTAGATA: the binding signal (log2 normalized intensity) was -1.26.
For GGTGGAGATGCCGTCGGCACACACGCATGG the value was -1.23; for GGGCTGTGAGAAACATCCTGCCTAACCACC, -1.39.
As for TATCTTTCCCTCCACTTCCTTTCTTTCCCT, the binding signal (log2 normalized intensity) was -0.624.
For GGGCATGGACTTTGGAATTAAGGAGATTTG, the binding signal (log2 normalized intensity) was 5.76.
Consider AGCATTAATCCCTGAGCCTGGACCTTGGAA, for which the binding signal (log2 normalized intensity) amounted to 4.7.
The same measure for ATGGCTACCAAGGAGTGGACTGTTCAAGAC: 1.07.
The same measure for ACCTGGCCAAGTACAGCCTGTGCTAAGTTT: -0.0755; for TAAGTGCACAGCCAGAACTGAGCCCTGGTT: -1.27; for CTCTGGGAGATAAAGCAGAGGGCTGCTTGC: -1.34.
CTTGGTGAGAGATTAAACATGCTCTGCATA: the binding signal (log2 normalized intensity) is -1.08.
The same measure for AGAGCACTAAATCTCTCCTAGAGAAAGGGG: -1.38; for GTAGAAATTGTGGCTTGTGTAGTTATCCAG: 1.4; for CTGAGGATCTAATGCACCCAGAACCCCCAG: 4.47.
Regarding CATTGCAAGTCGTATACTATCTCAGGGCCT, the binding signal (log2 normalized intensity) is -1.16.
For CGAGAGCCGCCGCCGTGGGAGAGGCCGCCC the value was -1.18; for TTGCCTTCCTGTTAGATAGAGGAGTCAAGC, -0.622; for CAAAGGACATTTCTAAAAATAGCCTTACTT, -1.37.
Turning to CTACATAACAAACATTACTAACTGGACTTT, the binding signal (log2 normalized intensity) was found to be 7.01.
Consider TGACCTCTTGGAAACATTTTACTCACCCCT, for which the binding signal (log2 normalized intensity) was 2.77.
As to TATGGGAAGTGGGGTAAGCAAGGCTCTTAG, the binding signal (log2 normalized intensity) was -1.34.
For the sequence GGCTAAACCTAGCCCCCTTTCCCTTATCTT, the binding signal (log2 normalized intensity) was 2.81.
For AAATTTGTTTACTTCTGTCTCCAGAAATCA the value was 0.99; for CCAGGTTCCAAAGGTCACCCGTATTCCTTA, 7.23; for AAGGTTCAGAGCCTGGCTGGCCTGGCAAAT, -1.03.
Regarding ACATTCTTAGACAACACACCACCTGCTACT, the binding signal (log2 normalized intensity) was -1.24.
The same measure for TTGTCAAGTTTGGTAAGCAGACCCCTACTG: 2.36.
For GGATTCTGGGACCCACCCACCTATGTCCTT the value was 2.75.
As for GTGGGGGTCGGGGCACTGGTCCCCTGCACA, the binding signal (log2 normalized intensity) is -0.202.
TTCTTTGGGGCTTAGATAGCAGTGTGAGTG: the binding signal (log2 normalized intensity) came out at 1.06.
